What was measured:
[1] = tested on: Campylobacter jejuni subsp. doylei ATCC 49349; conditions: P<0.05; for absorbance compared with isolates grown in the control media: approximately 20, 30, 40 and 50 mM acid
[2] = tested on: Campylobacter fetus subsp. fetus ATCC 27374

SMILES: O=C(O)CC(O)C(=O)O (racemic) [Malic, DL-malic acid]
- absorbance compared with isolates grown in the control media [1]: significantly higher
- absorbance at approximately 50 mM compared with approximately 40 mM of the same acid ([2]; P<0.05): significantly lower

SMILES: CC(O)C(=O)O (racemic) [Lactic, DL-lactic acid]
- absorbance compared with cultures grown in non-supplemented media ([1]; approximately 50 mM acid): not significantly different
- absorbance compared with cultures grown in non-supplemented media ([2]; approximately 50 mM acid, P<0.05): not significantly different

SMILES: O=C(O)CCC(=O)O [Succinic, succinic acid]
- absorbance compared with isolates grown in the control media [1]: significantly higher

SMILES: O=C(O)/C=C/C(=O)O [Fumaric, fumaric acid]
- absorbance compared with isolates grown in the control media [1]: significantly higher

SMILES: O=C(O)CC(O)(CC(=O)O)C(=O)O [Citric, citric acid]
- OD of cultures compared with cultures in non-supplemented media [2]: inability of citric acid to stimulate Campylobacter growth at any level of supplementation

— patent US7655454B1, “Bacteriological culture medium for Campylobacteriaceae species” (priority 2005, dated 2010)
